From PubChem BioAssay AID493208 (National Center for Advancing Translational Sciences (NCATS), 2011)
Hit rate of the full screen: of about 44,000 compounds, about 340 (0.77%) were called active. Another 5% or so got no clear call; they are omitted. Calls follow the shape of the dose curve; as a rule, active = well fitted inhibition curve with a large enough effect; inconclusive = small, poorly fitted or top-dose-only effect; inactive = flat fitted curve, though single readings scatter. The list shows a part of the results.

assay: Acumen qHTS Assay for Inhibitors of the mTORC1 Signaling Pathway in MEF (Tsc2-/-, p53-/-) Cells: Sytravon; details: phospho-rpS6 immunofluorescence/PI, 24 h; series mostly up to 38.3 µM; activity change, negative = inhibition: at the top concentration; also: nearly all actives have a fitted effect of over 50% in size
Summary of the method: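 Read-out: phospho-S6 Alexa-488 intensity over PI intensity per well, scored as % active cells using thresholds from rapamycin (7.5 nM) and DMSO controls. Tsc2-/-, p53-/- MEFs exposed to compound for 24 h; PI cell count recorded as viability.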

Activity change, negative = inhibition, inactive:
Cn1c(=O)n(-c2ccc(F)c(Cl)c2)c(=O)c2sc3ccccc3c21 1.25%
CCOC(=O)c1c(Nc2ccc(C)cc2)nnc(-c2ccccc2)c1-c1ccccc1 -0.458%
CCc1ccccc1NS(=O)(=O)c1ccc(OC)c2ncccc12 -1.94%
COc1ccc(NCc2cc3cc4c(cc3n(CC(=O)Nc3ccc(F)cc3F)c2=O)OCO4)cc1 -4.74%
CCC1CCCCN1C(=O)c1ccc2c(c1)N(Cc1cccc(Cl)c1)C(=O)c1ccccc1S2(=O)=O (stereo unspecified) -2.6%
COC(=O)CCSc1nc2sc3c(c2c(=O)n1Cc1ccccc1)CCC(C(C)(C)C)C3 (stereo unspecified) 18%
CCOC(=O)c1cnc2c(Cl)cccc2c1NCCN1CCOCC1 -0.376%
Cc1ccc(Oc2c(C(F)(F)F)oc3c(CN4CCCCC4)c(O)ccc3c2=O)cc1 1.76%
CCOc1cccc2cc(-c3nc(-c4ccccc4C)no3)c(=O)oc12 -4.1%
Cc1cc(F)ccc1NC(=O)CCS(=O)(=O)c1ccc2c(c1)NC(=O)CO2 8.39%
O=C(Nc1ccc(Cl)cc1)C1CCCN(S(=O)(=O)c2ccc3[nH]c(=O)ccc3c2)C1 (stereo unspecified) -2.28%
CCOC(=O)c1ccccc1NC(=O)CSc1cn(CC(=O)N2CCCCC2)c2ccccc12 -17.9%
COc1cccc(CNC(=O)C2CCCN(S(=O)(=O)c3ccc4c(ccn4C)c3)C2)c1 (stereo unspecified) -5.09%
Cc1nc2c(-c3ccccc3)c(C)nn2c(C)c1CCC(=O)NC(C)c1ccccc1 (stereo unspecified) -23.4%
COc1ccc(NC(=O)CC2C(=O)N(c3ccc(F)cc3)C(=O)N2Cc2cccnc2)cc1 (stereo unspecified) -1.3%
CCOC(=O)c1cccc(NC(=O)c2oc3c(c2C)-c2[nH]ncc2CC3)c1 -8.88%
CCCN(C(=O)c1cc2c(s1)-c1ccccc1OC2)c1ccccc1F -1.11%
CCC(C(=O)Nc1ccc(C(=O)OC)cc1)n1c(=O)c(-c2ccccc2NC(C)=O)nc2ccccc21 (stereo unspecified) -9.53%
CCc1ccccc1NS(=O)(=O)c1ccc2[nH]cc(C(=O)N3CCCCC3)c(=O)c2c1 4.97%
COc1cc(CN(C(=O)Nc2ccccc2)c2ccccn2)cc(OC)c1OC -0.667%
COc1ccc(Cl)cc1NC(=O)c1ccc2nc(Cc3ccccc3)oc2c1 4.75%
CCCC(=O)Nc1cc(C)c(O)c(-c2nc3ncccc3o2)c1 0.968%
Cc1ccc(-n2nc(C(=O)N3CCN(c4cc(Cl)ccc4C)CC3)c(=O)n(C)c2=O)cc1 -6.34%
CCc1ccc(C(=O)c2cn(CC(=O)Nc3ccc(F)c(F)c3)c3cc(OC)c(OC)cc3c2=O)cc1 3.6%
CCCCNC(=O)C1CCCN(Cc2nc(-c3ccc(Cl)cc3)oc2C)C1 (stereo unspecified) -10.6%
COc1cc(NC(=O)CCn2c(-c3ccccc3)cc(C(C)=O)c2C)cc(OC)c1 -0.645%
Cc1cc(C)c(NC(=O)CSc2ccnc(=O)[nH]2)c(C)c1 -0.0925%
COc1ccc(NC(=O)C(NS(=O)(=O)c2ccc3c(c2)CCCC(=O)N3)C(C)C)c(OC)c1 (stereo unspecified) 3%
Cc1cccc(CNC(=O)c2oc3c(c2C)-c2nn(Cc4ccccc4Cl)cc2CC3)c1 -3.17%
Cc1c(Cl)cccc1NC(=O)CSc1ncnc2c1sc1ccccc12 7.42%
Cc1cc(OCC(=O)Nc2ccc(-c3nc4cc(Cl)ccc4o3)cc2)cc(C)c1Cl 4.4%
CCc1ccc(C2CC(=O)c3c([nH]c(C(=O)OCC4CCCCC4)c3C)C2)cc1 (stereo unspecified) -3.62%
O=C(COc1ccccc1)NCc1ccc2c(c1)CCN2C(=O)c1ccc(F)cc1 -10.6%
CCOc1ccc(NC(=O)C(=O)NCCc2csc(-c3ccc(F)cc3)n2)cc1 0.0539%
CCc1cccc(NC(=O)Nc2ccc3c(c2)N(C)C(=O)c2ccccc2S3)c1 -10.3%
c1ccc(-n2ncc3c(NC4CCCC4)ncnc32)cc1 0%
COc1ccc(NS(=O)(=O)c2cc3[nH]c(=O)c(=O)[nH]c3cc2C)cc1Cl -0.75%
Cn1cc(S(=O)(=O)N2CCCCCC2)cc1C(=O)N1CCN(c2ccc(F)cc2)CC1 2.15%
CCC(=O)N1CCc2cc(Br)cc(S(=O)(=O)CCC(=O)NCCc3ccc(OC)c(OC)c3)c21 0%
CCOc1ccc(/C=C/c2nc(C#N)c(N3CCN(c4ccc(OC)cc4)CC3)o2)cc1 2.95%
Cc1ccc(NC(=O)Cc2c(C(=O)O)c(C)cn2C)cc1Cl -1.8%
CC(C)OCCCn1c(SCc2ccccc2C#N)nc2c(sc3ccccc32)c1=O -0.155%
CN(C(=O)C1CCCN(c2ncnc3c2nc2n3CCCCC2)C1)c1ccccc1F (stereo unspecified) 0.191%
CCN(CC)CC(C)CNC(=O)CN1C(=O)CSc2ccc(S(=O)(=O)N3CCOCC3)cc21 (stereo unspecified) -9.19%
COc1cc(OC)c(NC(=O)CN2C(=O)CCn3nc(-c4cccn4C)cc32)cc1Cl -1.23%
CC(C)c1ccc(S(=O)(=O)c2nnn3c2nc(NCCc2ccccc2)c2sccc23)cc1 -8.14%
CC(CCc1ccccc1)NC(=O)Cn1ncc2c3ccccc3n(Cc3ccc(F)cc3)c2c1=O (stereo unspecified) 0.498%
CCCn1c(=O)c2sccc2n2c(CCCC(=O)NCCc3ccc(Cl)cc3)nnc12 1.52%
Cc1ccc(CNC(=O)c2cc3sccc3n2Cc2ccc(Cl)cc2)cc1 -0.894%
CC(=O)Nc1ccc(S(=O)(=O)NCC2CCC(C(=O)NCCc3ccccc3)CC2)cc1 (stereo unspecified) -2.04%
Cc1nn(C(=O)c2cccc([N+](=O)[O-])c2C)c(C)c1S(=O)(=O)N1CCOCC1 -4.51%
Cc1ccc(NC(=O)CC(C)S(=O)(=O)c2ccc3c(c2)NC(=O)CO3)c(C)c1 (stereo unspecified) -8.66%
COc1cc(-c2ccno2)ccc1S(=O)(=O)N1CCN(c2cc(C)ccc2C)CC1 -0.874%
COCC(=O)Oc1c(Sc2ccc(C)cc2)c(C)nn1C(C)(C)C 5.09%
COc1cccc(N2CC(NC(=O)C(c3ccccc3)c3ccccc3)CC2=O)c1 (stereo unspecified) -0.908%
Cc1nc2nncn2c(N2CCN(c3ccccc3)CC2)c1C 3.32%
COc1ccccc1/C=C/c1nc(C#N)c(N2CCCCC2)o1 -21.9%
Cc1ccc2nc(-c3ccsc3)c(Nc3ccccc3C)n2c1 -25.3%
O=C(NCc1ccc(F)cc1)c1ccc(CSCc2cccc(Cl)c2)o1 -2.85%
COCCNC(=O)Cc1ccc(NC(=O)N2CCCCc3ccccc32)cc1 0%
Cn1cc(CN(C(=O)Nc2ccc(Cl)c(Cl)c2)C2CCCCC2)c2ccccc21 -8.76%
COc1ccc(-n2c(/C=C/c3ccccc3F)nc3cc(OC)c(OC)cc3c2=O)cc1Cl 4.59%
Cc1ccccc1Cn1c(C(=O)O)c(CNCc2cccc(F)c2)c2ccccc21 3.21%
COC(=O)c1scc(-c2ccccc2)c1S(=O)(=O)Nc1ccccc1 -16.4%
Cc1ccc(N2CC(NC(=O)/C=C\c3ccc4c(c3)OCO4)CC2=O)cc1C (stereo unspecified) -2.06%
O=C1c2ccccc2C(=O)C1(c1ccccc1)N1CCN(c2cccc(Cl)c2)CC1 -0.126%
CCN(CC)C(=O)C1CCN(S(=O)(=O)c2ccc3c(c2)CCCN3C(C)=O)CC1 -1.5%
Cc1ccc(-c2cc(C(F)(F)F)n3nc(C(=O)Nc4ccc(Cl)cc4Cl)cc3n2)cc1 -5.66%
Cc1ccc(NC(=O)CSc2ncc3c(n2)-c2ccccc2N(Cc2cccc(F)c2)S3(=O)=O)cc1F -2.56%
CC1CN(C(=O)Nc2ccc(C(=O)NCCc3ccccc3)cc2)c2ccccc2S1 (stereo unspecified) -6.13%
CCOc1cc(-c2ccc(OC(=O)c3ccccc3F)cc2)cc(=O)c2c(C)oc(C)c12 -4.39%
O=C(CSc1nccn1Cc1ccccc1)NCc1ccc(F)cc1 -1.25%
CCOc1ccc(C(=O)Nc2cc(-c3nc4ccccc4o3)ccc2C)cc1Cl -1.35%
Cc1cc(C)nc(NS(=O)(=O)c2ccc(NC(=O)COc3ccc(Cl)cc3C)cc2)n1 0.706%
CCN(Cc1ccccc1)C(=O)c1c(C)oc2ncn(C)c(=O)c12 -11.6%
COc1ccc(-n2nc3ccc(NC(=O)c4ccc(-c5cc(Cl)ccc5Cl)o4)cc3n2)cc1 1.03%
COc1ccc(-n2ccnc(NCc3ccc(Cl)cc3)c2=O)cc1 -2.28%
COc1ccc(NC(=O)CCc2nnc3n(C)c(=O)c4sccc4n23)cc1 -16.3%
C=CCc1ccccc1OCCSc1nc(-c2ccc(C(C)(C)C)cc2)nc2cc(=O)[nH]n12 -12.7%
Clc1cccc(N2CCN(c3nc4ccccc4n4cnnc34)CC2)c1 -15%
COc1cccc(NC(=O)C2CCCN(S(=O)(=O)c3c(C)[nH]c(=O)[nH]c3=O)C2)c1 (stereo unspecified) 1.11%
Cc1cc(C)cc(NC(=O)CCC(=O)N2Cc3ccccc3Oc3ncccc32)c1 -3.54%
CCN(c1cc(C)cc(C)c1)S(=O)(=O)c1nnc(NC(=O)C2CCCCC2)s1 -0.818%
O=C(Nc1ccc(Br)c2cccnc12)c1cccc2ccccc12 -5.46%
Cc1c(Cl)cccc1-c1ccc(CNc2ccc3[nH]c(=O)[nH]c3c2)o1 -9.07%
Cc1ccc(CCNC(=O)c2cc3sccc3n2Cc2ccc(C)cc2)cc1 3.82%
CCCc1cnc2c(c1SCC(=O)N(C)c1ccccc1)c(=O)n(C)c(=O)n2C -6.87%
COc1cc2ccccc2cc1C(=O)Nc1ccc2oc(-c3ccc(F)cc3)nc2c1 7.03%
CCc1ccccc1NC(=O)c1nnn(-c2ccc(F)cc2)c1C -18.8%
Cc1cc(C)cc(-n2c(SCC(=O)N3CCCCC3)nc3c([nH]c4ccccc43)c2=O)c1 -8.22%
CC1CCN(S(=O)(=O)c2ccc3c(c2)oc(=O)n3CC(=O)NCc2ccc(F)cc2)CC1 -2.7%
CCOc1ccc(NC(=O)Cn2c(=O)n(Cc3ccco3)c(=O)c3oc4ccccc4c32)cc1 -3.61%
COc1ccc(NC(=O)c2oc3ccccc3c2NC(=O)c2cccc(F)c2)c(OC)c1 5.62%
Cc1ccn2c(Nc3ccccc3C)c(-c3ccccn3)nc2c1 -8%
COCCCNC(=O)C1CCCN(C(=O)c2cnn(-c3ccc(F)cc3)c2-n2cccc2)C1 (stereo unspecified) 0.295%
Cc1cc(C)c(CSc2nnc(C)n3c2cc2occc23)c(C)c1 -10.9%
